We go through 19 molecules from ChEMBL document CHEMBL5606460, “ASAP - DENV-2 NS2B-NS3 protease fluorescence single point” (2024).

In all, about 2,000 compounds went through this assay and about 110 (5.5%) showed an effect of 50% or more. The list shows a part of the results.

The assay deals with Genome polyprotein (dengue virus type 2) (UniProt P29990).
[1] abbreviates: Thailand/16681/1984, Concentration 25.0 uM, Number of replicates 1.0.

For `CNc1cc(COc2cccnc2F)nc(N2CCNCC2)n1`, the inhibition was -4.34% (Thailand/16681/1984, Concentration 49.5 uM, Number of replicates 2.0, Standard deviation 2.2039377761224554 %); -4.13% (Thailand/16681/1984, Concentration 99.01 uM, Number of replicates 2.0, Standard deviation 2.2907073476131674 %); -4.06% (Thailand/16681/1984, Concentration 198.0 uM, Number of replicates 2.0, Standard deviation 2.1078244169042724 %).

On to `O=Cc1ccc(N2CCC(C(=O)Nc3ccnc(Br)c3)CC2)cc1`, for which, under setting [1], the inhibition was determined as 11.9%.

Regarding `Cc1cc(CO)c2cccc(Cc3ccccc3NC(=O)Cc3csc(Cc4ccccc4)n3)c2n1`, the inhibition was -0.54% (Thailand/16681/1984, Concentration 49.95 uM, Number of replicates 2.0, Standard deviation 1.2441700790071646 %) and 0.901% (Thailand/16681/1984, Concentration 99.9 uM, Number of replicates 2.0, Standard deviation 1.3300226430755788 %).

Turning to `CC(C)(CO)NC(=O)c1cc(Cl)cc(NC(=O)c2cc(C(N)=O)[nH]n2)c1`, the inhibition was -1.68% (Thailand/16681/1984, Concentration 49.5 uM, Number of replicates 2.0, Standard deviation 1.4418289783075546 %); -0.744% (Thailand/16681/1984, Concentration 99.01 uM, Number of replicates 2.0, Standard deviation 0.879186931981426 %); 1.6% (Thailand/16681/1984, Concentration 198.0 uM, Number of replicates 2.0, Standard deviation 2.4633202398415794 %).

Take `O=Cc1ccc(N2CCC(C(=O)NC34CC5CC(CC(C5)C3)C4)CC2)cc1`: the inhibition under setting [1] amounted to 13.2%.

In the case of `O=C(O)c1cccc(NC(=O)c2ccc(Br)cc2)c1`, the inhibition by setting is: (Thailand/16681/1984, Concentration 49.5 uM, Number of replicates 2.0, Standard deviation 0.8423395017617462 %) 0.479%; (Thailand/16681/1984, Concentration 99.01 uM, Number of replicates 2.0, Standard deviation 1.3399119348291484 %) 0.474%; (Thailand/16681/1984, Concentration 198.0 uM, Number of replicates 2.0, Standard deviation 0.6059687589825926 %) 2.3%.

Take `CCn1ccnc(N2CC[C@H](C(C)(C)C)C2)c1=O`: the inhibition (Thailand/16681/1984, Concentration 49.5 uM, Number of replicates 2.0, Standard deviation 0.3173030547764478 %) was determined as 3.7%; the inhibition (Thailand/16681/1984, Concentration 99.01 uM, Number of replicates 2.0, Standard deviation 0.33036520606694414 %) came to 9.97%; the inhibition (Thailand/16681/1984, Concentration 198.0 uM, Number of replicates 2.0, Standard deviation 0.16055589059134015 %) was found to be 19.7%.

With `C[C@@H](CNC(=O)C1CCN(c2ccc(C=O)cc2)CC1)N(C)c1ccccc1`, the inhibition under setting [1] was found to be 14.4%.

As to `O=C(NCCc1ncc[nH]1)c1ccn([C@H]2CCCNC2)n1`, the inhibition by setting is: (Thailand/16681/1984, Concentration 49.5 uM, Number of replicates 2.0, Standard deviation 2.386405138905033 %) -4.85%; (Thailand/16681/1984, Concentration 99.01 uM, Number of replicates 2.0, Standard deviation 1.7399173269947343 %) -3.44%; (Thailand/16681/1984, Concentration 198.0 uM, Number of replicates 2.0, Standard deviation 2.078401786252514 %) -3.46%.

`Cc1nn(Cc2ccccc2OC(F)F)cc1C1CCNCC1`: the inhibition runs as follows: (Thailand/16681/1984, Concentration 49.5 uM, Number of replicates 2.0, Standard deviation 0.06069525507205339 %) -1.27%; (Thailand/16681/1984, Concentration 99.01 uM, Number of replicates 2.0, Standard deviation 0.21107457835619564 %) -0.975%; (Thailand/16681/1984, Concentration 198.0 uM, Number of replicates 2.0, Standard deviation 0.9955837043898559 %) -0.593%.

Consider `O=Cc1ccc(N2CCC(C(=O)NC3CCN(C(=O)NC4CCCCC4)CC3)CC2)cc1`, for which the inhibition under setting [1] worked out at 14.6%.

As to `CCn1c(CNC(=O)c2ccc(O)c(NC(=O)c3ccncc3F)c2C)n[nH]c1=O`, the inhibition (Thailand/16681/1984, Concentration 49.5 uM, Number of replicates 2.0, Standard deviation 0.676667273520767 %) was -1.12%; the inhibition (Thailand/16681/1984, Concentration 99.01 uM, Number of replicates 2.0, Standard deviation 0.09913961884509878 %) stood at 0.163%; the inhibition (Thailand/16681/1984, Concentration 198.0 uM, Number of replicates 2.0, Standard deviation 1.3423189960067998 %) was 0.938%.

For `COC(=O)c1sccc1CNCc1nnc2ccccn12`, the inhibition by setting is: (Thailand/16681/1984, Concentration 49.5 uM, Number of replicates 2.0, Standard deviation 1.980130403023452 %) -1.81%; (Thailand/16681/1984, Concentration 99.01 uM, Number of replicates 2.0, Standard deviation 1.85824235460103 %) -1.36%; (Thailand/16681/1984, Concentration 198.0 uM, Number of replicates 2.0, Standard deviation 1.964289394106799 %) -1.28%.

For the molecule `Cc1[nH]nc2ccc(C(=O)NC3(C)CN(C(=O)c4cnc(N)s4)C3)c(Cl)c12`, the inhibition is, setting by setting: (Thailand/16681/1984, Concentration 49.5 uM, Number of replicates 2.0, Standard deviation 3.9991573738943345 %) -1.89%; (Thailand/16681/1984, Concentration 99.01 uM, Number of replicates 2.0, Standard deviation 4.0540572265618975 %) -1.21%; (Thailand/16681/1984, Concentration 198.0 uM, Number of replicates 2.0, Standard deviation 4.165455814742133 %) 0.45%.

With `COc1cc(-c2ccccc2C(=O)Nc2cnn(C)c2)ccc1O`, the inhibition was -1.47% (Thailand/16681/1984, Concentration 49.5 uM, Number of replicates 2.0, Standard deviation 2.595283339618205 %); -0.48% (Thailand/16681/1984, Concentration 99.01 uM, Number of replicates 2.0, Standard deviation 3.3571879148786463 %); 1.19% (Thailand/16681/1984, Concentration 198.0 uM, Number of replicates 2.0, Standard deviation 1.6165328547159332 %).

With `NC[C@H]1C[C@H](NC(=O)[C@@H](NC(=O)OCc2ccccc2)c2ccc(OCc3ccccc3)cc2)C1`, the inhibition is -6.14% (Thailand/16681/1984, Concentration 49.5 uM, Number of replicates 2.0, Standard deviation 3.3178745989931393 %); -5.08% (Thailand/16681/1984, Concentration 99.01 uM, Number of replicates 2.0, Standard deviation 3.966106616082213 %); 2.97% (Thailand/16681/1984, Concentration 198.0 uM, Number of replicates 2.0, Standard deviation 2.362147520244588 %).

On to `O=Cc1ccc(N2CCC(C(=O)NCc3cc(F)cc(Cl)c3)CC2)cc1`, for which the inhibition under setting [1] came to 10.1%.

Regarding `O=C(c1cc(Cl)ccc1NS(=O)(=O)c1ccc(Oc2ccccc2Cl)cc1)N1CCCC1`, the inhibition reads like this: (Thailand/16681/1984, Concentration 49.5 uM, Number of replicates 2.0, Standard deviation 0.3065647121254482 %) 37.4%; (Thailand/16681/1984, Concentration 99.01 uM, Number of replicates 2.0, Standard deviation 0.3046576515240273 %) 55.4%; (Thailand/16681/1984, Concentration 198.0 uM, Number of replicates 2.0, Standard deviation 0.40716687929743567 %) 69%.

For the molecule `Cc1cc(CO)c2cccc(Cc3cccc(C(=O)N[C@H]4C[C@@H](O)C4)c3)c2n1`, the inhibition (Thailand/16681/1984, Concentration 49.95 uM, Number of replicates 2.0, Standard deviation 0.3715430142368757 %) came out at 6.97% and the inhibition (Thailand/16681/1984, Concentration 99.9 uM, Number of replicates 2.0, Standard deviation 0.8666943057865014 %) was 29.2%.
